Test results reported in the antibiotic and cytotoxicity screens of Wong et al. (2023).
Some of the results follow.

What follows are compounds tested on S. aureus RN4220 (assay: growth inhibition call (relative growth <= 0.2)). Conditions: 50 µM.

Growth inhibition call, active:
CCC1OC(=O)C(C)C(=O)C(C)C(OC2OC(C)CC(N(C)C)C2O)C(C)(OC)CC(C)C(=O)C(C)C2N(CCCCn3cnc(-c4cccnc4)c3)C(=O)OC12C (stereo not given)

Growth inhibition call, inactive:
COCc1cn(CC[C@H]2CC[C@H](NC(=O)CCN3CCCCC3)[C@H](CO)O2)nn1, COc1ccc(CN(C)C[C@H]2Oc3ccc(NS(=O)(=O)c4cn(C)cn4)cc3CC(=O)N([C@@H](C)CO)C[C@H]2C)cc1, C[C@H](CO)N1C[C@H](C)[C@@H](CN(C)C(=O)Nc2cccc3ccccc23)Oc2ccc(NC(=O)Nc3ccc(C(F)(F)F)cc3)cc2CC1=O, Cc1noc(C)c1NC(=O)Nc1ccc2c(c1)C(=O)N([C@H](C)CO)C[C@H](C)[C@@H](CN(C)C(=O)C1CCCCC1)OCCCC[C@@H](C)O2, CN(C)c1ccc(O)c2c1C[C@@H]1C[C@@H]3[C@@H](N(C)C)C(=O)C(C(N)=O)=C(O)[C@]3(O)C(=O)[C@H]1C2=O, COc1cc(NC(=O)c2cccs2)c(C(=O)OCC(=O)c2cc(C)n(-c3ccccc3)c2C)cc1OC, Cc1ccc(S(=O)(=O)N[C@H](C)C(=O)O)cc1, CCCN1CCC2(CC1)NC(=O)N(CC(=O)N1CCN(C(=O)OCC)CC1)C2=O, C[C@H]1CN([C@@H](C)CO)S(=O)(=O)c2ccc(C#CC(C)(C)O)cc2O[C@@H]1CN(C)Cc1ccccc1, O=C(O[C@@H]1O[C@@H]2COC(=O)c3cc(Oc4c(C(=O)O)cc(O)c(O)c4O)c(O)c(O)c3-c3c(cc(O)c(O)c3O)C(=O)O[C@H]2[C@H](OC(=O)c2cc(O)c(O)c(O)c2)[C@H]1OC(=O)c1cc(O)c(O)c(O)c1)c1cc(O)c(O)c(O)c1, C[C@H]1CN([C@@H](C)CO)C(=O)c2cc(NC(=O)Cn3cnnn3)ccc2O[C@H]1CN(C)Cc1ccc(C(F)(F)F)cc1, C=CC[C@H](CC(=O)NCCO)C(=O)NC[C@@H](OC(=O)[C@H](CC=C)CC(=O)OC(C)(C)C)c1ccccc1, CCO[C@@H]1OC(C(=O)N2CCN(Cc3ccc4c(c3)OCO4)CC2)=C[C@H](c2ccc(C(F)(F)F)cc2)[C@H]1CCCOC(=O)NCCCCCC(=O)NO, COc1ccc(C2=CCCC2)cc1, C[C@@H]1CCCCO[C@@H](CN(C)CC2CCCCC2)[C@H](C)CN([C@@H](C)CO)C(=O)c2cc(NC(=O)CCCCCC(=O)Nc3ccccc3N)ccc2O1, O=c1ccoc2cc(O)c([C@H]3O[C@H](CO)[C@@H](O)[C@H](O)[C@@H]3O)c(O)c12, Cc1ccc(S(=O)(=O)Nc2ccc3c(c2)C(=O)N([C@H](C)CO)C[C@H](C)[C@H](CN(C)S(=O)(=O)c2c(C)noc2C)O3)cc1, COCC(=O)N[C@@H]1C=C[C@H](CC(=O)N2CCCCC2)O[C@@H]1CO, C[C@H](CO)N1C[C@H](C)[C@H](CN(C)C(=O)CN2CCOCC2)Oc2cc(/C=C/c3ccccc3)ccc2S1(=O)=O, CC(C)NC(=O)Nc1ccc2c(c1)CC(=O)N([C@@H](C)CO)C[C@@H](C)[C@@H](CN(C)Cc1ccc3c(c1)OCO3)O2, COc1ccc(S(=O)(=O)Nc2cccc3c2O[C@@H](CN(C)C(=O)Nc2c(C)noc2C)[C@@H](C)CN([C@H](C)CO)C3=O)cc1, COc1ccc(CN(C)C[C@@H]2OCCCC[C@H](C)Oc3ccc(NC(=O)c4ccncc4)cc3C(=O)N([C@@H](C)CO)C[C@H]2C)cc1, Nc1nc(=S)c2ncn([C@@H]3O[C@H](CO)[C@@H](O)[C@H]3O)c2[nH]1, C[C@@H]1CN([C@H](C)CO)C(=O)c2ccccc2-c2ccccc2CO[C@@H]1CN(C)Cc1ccc(C(F)(F)F)cc1, C[C@@H]1CN([C@@H](C)CO)C(=O)c2cc(NS(=O)(=O)c3ccc(Cl)cc3)ccc2O[C@@H](C)CCCCO[C@@H]1CN(C)C(=O)Nc1ccccc1, C[C@H]1CN([C@@H](C)CO)C(=O)Cc2cc(NS(C)(=O)=O)ccc2O[C@H]1CN(C)C, COC(=O)c1cccc(NC(=N)N=C(N)N)c1, c1cnc(-c2cn[nH]c2)cn1, C[C@@H]1CN([C@H](C)CO)C(=O)c2cc(NS(C)(=O)=O)ccc2O[C@H]1CN(C)S(=O)(=O)c1cn(C)cn1, CCCC#Cc1ccc2c(c1)O[C@H](CN(C)S(=O)(=O)c1cccc(F)c1)[C@H](C)CN([C@H](C)CO)S2(=O)=O, C[C@H]1CN([C@@H](C)CO)C(=O)CCCn2cc(nn2)CO[C@H]1CN(C)S(=O)(=O)c1ccc(-c2ccccc2)cc1, C[C@@H]1CCCCO[C@H](CN(C)C(=O)NC2CCCCC2)[C@@H](C)CN([C@H](C)CO)C(=O)c2cc(NC(=O)c3ccncc3)ccc2O1, CCN1[C@@H]2c3ccc(-c4cccnc4)c(=O)n3C[C@@H]2[C@@H](CO)[C@@H]1C(=O)NCCc1cn(C)cn1, OCCNC(=S)c1ccccc1, C[C@H]1CN([C@@H](C)CO)C(=O)Cc2cc(NS(=O)(=O)c3ccc(F)cc3)ccc2O[C@H]1CN(C)Cc1ccc(-c2ccccc2)cc1, CC(C)=CCOc1cc(C)cc2oc(=O)cc(-c3ccccc3)c12, CC(C)NC(=O)Nc1ccc2c(c1)CC(=O)N([C@@H](C)CO)C[C@H](C)[C@@H](CN(C)S(=O)(=O)c1cn(C)cn1)O2, C[C@@H]1CCCCO[C@H](CN(C)C(=O)CCCN(C)C)[C@@H](C)CN([C@H](C)CO)C(=O)c2cc(NC(=O)Nc3ccc(F)cc3)ccc2O1, CC(C)(O)CCC(O)C(C)(O)C1CCC2(O)C3=CC(=O)C4CC(O)C(O)CC4(C)C3CCC12C (stereo not given)
